{"source": "the supplement of paper PMC3334620", "note": "Whole data set: some 33,000 sequences, median “E-score (-0.5 to 0.5)” near -0.013, cut for the highest 2% near 0.3. The list shows a part of the results.", "data": [{"target": "T1, Msn1 (UniProt P22148)", "T1 sequence": "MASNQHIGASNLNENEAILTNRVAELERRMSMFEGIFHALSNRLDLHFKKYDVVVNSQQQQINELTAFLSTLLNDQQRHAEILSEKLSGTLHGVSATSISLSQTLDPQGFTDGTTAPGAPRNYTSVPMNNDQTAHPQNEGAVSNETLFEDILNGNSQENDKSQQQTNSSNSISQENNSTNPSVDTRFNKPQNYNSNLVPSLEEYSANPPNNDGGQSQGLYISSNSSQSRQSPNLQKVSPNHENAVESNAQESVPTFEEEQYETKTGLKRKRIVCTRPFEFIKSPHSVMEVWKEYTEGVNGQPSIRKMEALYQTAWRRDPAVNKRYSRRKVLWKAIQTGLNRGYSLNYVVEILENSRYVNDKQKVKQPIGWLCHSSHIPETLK", "test": "PBM E-score (8-mer binding enrichment) (E-score (-0.5 to 0.5)); higher = stronger / more preferred TF binding; most listed sequences are background and not binding sites", "conditions": "protein concentration: 200 nM; construct: GST-full length", "method_in_brief": "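GST-tagged yeast TFs (full-length or DNA-binding domain) were made by PURExpress in vitro transcription/translation and applied at about 100-200 nM to universal all-10-mer Agilent arrays. The arrays were made double-stranded by primer extension, on fresh or once-stripped slides. Bound protein was detected with fluorescent anti-GST, and scans were normalised with masliner. Each ungapped eight-base word, pooled with its reverse complement, received an E-score (modified Wilcoxon-Mann-Whitney statistic) from the Universal PBM Analysis Suite.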", "values": [{"sequence": "CAACTTAC", "PBM E-score": -0.0449}, {"sequence": "AATTAATA", "PBM E-score": 0.352}, {"sequence": "CGCTCCAG", "PBM E-score": -0.16}, {"sequence": "GAGTGCGC", "PBM E-score": 0.0269}, {"sequence": "ATCACGTG", "PBM E-score": 0.094}, {"sequence": "ATAATATA", "PBM E-score": 0.156}, {"sequence": "TCAGAGCA", "PBM E-score": -0.227}, {"sequence": "GCACGGCA", "PBM E-score": 0.00341}, {"sequence": "AAATTCCA", "PBM E-score": 0.192}, {"sequence": "GGGAGGTA", "PBM E-score": -0.164}, {"sequence": "ATATGATA", "PBM E-score": 0.253}, {"sequence": "ACGCTGTG", "PBM E-score": 0.111}, {"sequence": "ACAACAAC", "PBM E-score": 0.0976}, {"sequence": "ACTCAAAT", "PBM E-score": 0.1}, {"sequence": "GACTTAAC", "PBM E-score": -0.0619}, {"sequence": "ACGGTTGC", "PBM E-score": -0.213}, {"sequence": "GTTATCGA", "PBM E-score": 0.0669}, {"sequence": "ACTTAAAA", "PBM E-score": 0.152}, {"sequence": "ATGCGCGC", "PBM E-score": 0.114}, {"sequence": "CGGCTATC", "PBM E-score": -0.086}, {"sequence": "CTGGCCAA", "PBM E-score": -0.0295}, {"sequence": "AAGGGGCC", "PBM E-score": -0.191}, {"sequence": "CACATTCC", "PBM E-score": 0.0503}, {"sequence": "CCCATAGG", "PBM E-score": -0.0495}, {"sequence": "GTATCAAA", "PBM E-score": 0.16}, {"sequence": "CCTTGGCA", "PBM E-score": -0.155}, {"sequence": "CCCTGCAA", "PBM E-score": -0.246}, {"sequence": "CTTAACAC", "PBM E-score": -0.0629}, {"sequence": "AAGCCCTA", "PBM E-score": -0.0743}, {"sequence": "ACGGGAGT", "PBM E-score": -0.0246}, {"sequence": "CACCTCGC", "PBM E-score": -0.168}, {"sequence": "AGTTATTG", "PBM E-score": 0.0423}, {"sequence": "CAAGCGTA", "PBM E-score": -0.0459}, {"sequence": "GGTGGTCA", "PBM E-score": -0.237}, {"sequence": "ACTCCACC", "PBM E-score": -0.0279}, {"sequence": "ATCTTTTC", "PBM E-score": 0.117}, {"sequence": "TGTGGAAA", "PBM E-score": 0.18}, {"sequence": "AACTATTC", "PBM E-score": 0.00545}, {"sequence": "AGGCAGAG", "PBM E-score": -0.114}, {"sequence": "CCCGCTGA", "PBM E-score": -0.179}, {"sequence": "ATTCCCGC", "PBM E-score": 0.163}, {"sequence": "AGGAGCCG", "PBM E-score": -0.304}, {"sequence": "CCCTATTC", "PBM E-score": -0.101}, {"sequence": "AGAGAACA", "PBM E-score": 0.00043}, {"sequence": "ACATAGCC", "PBM E-score": 0.108}, {"sequence": "TGGCCCCA", "PBM E-score": -0.338}, {"sequence": "AGAGAACC", "PBM E-score": -0.28}, {"sequence": "ACTTGGGC", "PBM E-score": -0.109}, {"sequence": "CCTAAGAG", "PBM E-score": -0.0591}, {"sequence": "GAATTCCA", "PBM E-score": 0.162}, {"sequence": "AAATCTTC", "PBM E-score": -0.0522}, {"sequence": "CTAGATAG", "PBM E-score": -0.0926}, {"sequence": "ATACGGAA", "PBM E-score": 0.255}, {"sequence": "ACCTGCCT", "PBM E-score": -0.191}, {"sequence": "AGTCACGC", "PBM E-score": -0.197}, {"sequence": "CCGATCGA", "PBM E-score": -0.0183}, {"sequence": "GATAGAAA", "PBM E-score": -0.0663}, {"sequence": "TCCCAGGA", "PBM E-score": -0.205}, {"sequence": "GGCCCATA", "PBM E-score": -0.217}, {"sequence": "GGACGCTA", "PBM E-score": -0.234}, {"sequence": "AAGCTTGC", "PBM E-score": -0.0773}, {"sequence": "CCGTAGAA", "PBM E-score": 0.0725}, {"sequence": "ACCGCGAC", "PBM E-score": 0.301}, {"sequence": "TTAAGAAA", "PBM E-score": 0.0709}, {"sequence": "AAAAATAA", "PBM E-score": 0.191}, {"sequence": "CCCGGTCC", "PBM E-score": -0.207}, {"sequence": "CACGTGGG", "PBM E-score": -0.0886}, {"sequence": "AGAAAATA", "PBM E-score": 0.147}, {"sequence": "GCTCAAGC", "PBM E-score": -0.105}, {"sequence": "ATTCCCGG", "PBM E-score": 0.175}, {"sequence": "AGGTAGAG", "PBM E-score": -0.108}, {"sequence": "CGGCAGTA", "PBM E-score": -0.103}, {"sequence": "ACAGCGAC", "PBM E-score": -0.0767}, {"sequence": "AATATTGC", "PBM E-score": 0.218}, {"sequence": "CCTGAATA", "PBM E-score": 0.142}, {"sequence": "CACACAGC", "PBM E-score": -0.0821}, {"sequence": "CCTTGTCA", "PBM E-score": 0.0263}, {"sequence": "AGCGCTCA", "PBM E-score": -0.229}, {"sequence": "AAATGTGA", "PBM E-score": 0.0721}, {"sequence": "AATGACGA", "PBM E-score": 0.101}, {"sequence": "AGATACTG", "PBM E-score": 0.0276}, {"sequence": "ACTCTCAC", "PBM E-score": -0.053}, {"sequence": "CATAATAA", "PBM E-score": 0.14}, {"sequence": "AATTGCGT", "PBM E-score": -0.035}, {"sequence": "ACCGTATA", "PBM E-score": -0.183}, {"sequence": "CAGAGGCA", "PBM E-score": -0.0621}]}]}
